Results are given in words; binding and its absence hold for the method and conditions named. In cells and extracts the contact can be indirect. Some binding calls cover weakened binding; strength is not graded here. One block for each molecule: values may come before it.
Key:
[1] = biological target: SK3 calcium-activated small-conductance potassium channel (mouse (endogenous in midbrain)) (UniProt P58391); experiment: co-IP; mouse midbrain plasma-membrane-enriched fraction solubilised in ComplexioLyte CL47a (IP1) or CL48 (IP2), also in the other ComplexioLyte buffers of varying stringencies; antibody overnight at 4 °C, captured on protein A-Sepharose or protein A/G; immunoblot
[2] = biological target: T1, hyperpolarization-activated cyclic nucleotide-gated channel HCN2 (mouse (endogenous in midbrain)) (UniProt O88703); experiment: proximity ligation; in situ Duolink PLA with two primary antibodies on fixed 40 µm mouse midbrain slices; puncta counted on tyrosine-hydroxylase-labelled SNc DA neurons; controls: KO mice or an antibody to another protein
T1 sequence: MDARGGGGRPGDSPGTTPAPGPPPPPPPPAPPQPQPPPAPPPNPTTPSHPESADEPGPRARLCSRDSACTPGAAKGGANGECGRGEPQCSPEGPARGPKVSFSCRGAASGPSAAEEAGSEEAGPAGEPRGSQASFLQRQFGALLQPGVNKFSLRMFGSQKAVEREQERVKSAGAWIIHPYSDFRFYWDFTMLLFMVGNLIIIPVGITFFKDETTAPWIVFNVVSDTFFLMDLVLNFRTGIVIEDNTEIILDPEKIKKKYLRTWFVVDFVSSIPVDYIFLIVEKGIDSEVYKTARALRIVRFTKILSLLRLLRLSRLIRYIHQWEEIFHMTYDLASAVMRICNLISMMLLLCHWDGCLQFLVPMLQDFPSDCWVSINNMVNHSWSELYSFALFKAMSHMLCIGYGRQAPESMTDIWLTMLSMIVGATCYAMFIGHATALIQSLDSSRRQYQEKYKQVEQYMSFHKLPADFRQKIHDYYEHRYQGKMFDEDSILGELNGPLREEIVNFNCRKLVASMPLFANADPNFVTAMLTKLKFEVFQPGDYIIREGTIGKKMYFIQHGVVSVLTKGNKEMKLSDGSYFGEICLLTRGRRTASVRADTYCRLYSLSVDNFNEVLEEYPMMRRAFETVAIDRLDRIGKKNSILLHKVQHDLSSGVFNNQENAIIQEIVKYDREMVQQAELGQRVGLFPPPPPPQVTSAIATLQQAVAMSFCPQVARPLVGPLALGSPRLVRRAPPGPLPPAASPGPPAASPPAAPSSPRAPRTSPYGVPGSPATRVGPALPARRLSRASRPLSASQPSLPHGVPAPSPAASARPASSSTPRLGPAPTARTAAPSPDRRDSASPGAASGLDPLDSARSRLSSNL

Protein sequences, listed by entry. Tags and fused reporters are not part of them.
UniProt P58391: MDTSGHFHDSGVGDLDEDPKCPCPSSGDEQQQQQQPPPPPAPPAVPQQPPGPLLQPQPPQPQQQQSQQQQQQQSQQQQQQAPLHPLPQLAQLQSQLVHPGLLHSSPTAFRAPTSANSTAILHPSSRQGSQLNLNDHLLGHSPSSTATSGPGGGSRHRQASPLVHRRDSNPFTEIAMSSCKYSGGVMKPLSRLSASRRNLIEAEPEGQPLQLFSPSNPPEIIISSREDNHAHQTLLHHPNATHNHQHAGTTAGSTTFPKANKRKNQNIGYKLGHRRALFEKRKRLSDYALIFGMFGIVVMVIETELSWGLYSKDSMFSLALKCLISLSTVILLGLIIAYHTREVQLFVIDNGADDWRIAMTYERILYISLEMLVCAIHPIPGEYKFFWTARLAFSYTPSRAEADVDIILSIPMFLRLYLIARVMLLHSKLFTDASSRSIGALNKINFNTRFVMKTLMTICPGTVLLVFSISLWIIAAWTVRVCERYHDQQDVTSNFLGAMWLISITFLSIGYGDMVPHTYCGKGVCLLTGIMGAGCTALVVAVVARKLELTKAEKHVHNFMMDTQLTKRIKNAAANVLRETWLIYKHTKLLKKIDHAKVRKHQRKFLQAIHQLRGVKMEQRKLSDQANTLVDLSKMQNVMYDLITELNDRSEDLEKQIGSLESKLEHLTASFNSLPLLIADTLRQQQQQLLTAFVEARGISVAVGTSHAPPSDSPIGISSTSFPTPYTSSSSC
UniProt Q99246: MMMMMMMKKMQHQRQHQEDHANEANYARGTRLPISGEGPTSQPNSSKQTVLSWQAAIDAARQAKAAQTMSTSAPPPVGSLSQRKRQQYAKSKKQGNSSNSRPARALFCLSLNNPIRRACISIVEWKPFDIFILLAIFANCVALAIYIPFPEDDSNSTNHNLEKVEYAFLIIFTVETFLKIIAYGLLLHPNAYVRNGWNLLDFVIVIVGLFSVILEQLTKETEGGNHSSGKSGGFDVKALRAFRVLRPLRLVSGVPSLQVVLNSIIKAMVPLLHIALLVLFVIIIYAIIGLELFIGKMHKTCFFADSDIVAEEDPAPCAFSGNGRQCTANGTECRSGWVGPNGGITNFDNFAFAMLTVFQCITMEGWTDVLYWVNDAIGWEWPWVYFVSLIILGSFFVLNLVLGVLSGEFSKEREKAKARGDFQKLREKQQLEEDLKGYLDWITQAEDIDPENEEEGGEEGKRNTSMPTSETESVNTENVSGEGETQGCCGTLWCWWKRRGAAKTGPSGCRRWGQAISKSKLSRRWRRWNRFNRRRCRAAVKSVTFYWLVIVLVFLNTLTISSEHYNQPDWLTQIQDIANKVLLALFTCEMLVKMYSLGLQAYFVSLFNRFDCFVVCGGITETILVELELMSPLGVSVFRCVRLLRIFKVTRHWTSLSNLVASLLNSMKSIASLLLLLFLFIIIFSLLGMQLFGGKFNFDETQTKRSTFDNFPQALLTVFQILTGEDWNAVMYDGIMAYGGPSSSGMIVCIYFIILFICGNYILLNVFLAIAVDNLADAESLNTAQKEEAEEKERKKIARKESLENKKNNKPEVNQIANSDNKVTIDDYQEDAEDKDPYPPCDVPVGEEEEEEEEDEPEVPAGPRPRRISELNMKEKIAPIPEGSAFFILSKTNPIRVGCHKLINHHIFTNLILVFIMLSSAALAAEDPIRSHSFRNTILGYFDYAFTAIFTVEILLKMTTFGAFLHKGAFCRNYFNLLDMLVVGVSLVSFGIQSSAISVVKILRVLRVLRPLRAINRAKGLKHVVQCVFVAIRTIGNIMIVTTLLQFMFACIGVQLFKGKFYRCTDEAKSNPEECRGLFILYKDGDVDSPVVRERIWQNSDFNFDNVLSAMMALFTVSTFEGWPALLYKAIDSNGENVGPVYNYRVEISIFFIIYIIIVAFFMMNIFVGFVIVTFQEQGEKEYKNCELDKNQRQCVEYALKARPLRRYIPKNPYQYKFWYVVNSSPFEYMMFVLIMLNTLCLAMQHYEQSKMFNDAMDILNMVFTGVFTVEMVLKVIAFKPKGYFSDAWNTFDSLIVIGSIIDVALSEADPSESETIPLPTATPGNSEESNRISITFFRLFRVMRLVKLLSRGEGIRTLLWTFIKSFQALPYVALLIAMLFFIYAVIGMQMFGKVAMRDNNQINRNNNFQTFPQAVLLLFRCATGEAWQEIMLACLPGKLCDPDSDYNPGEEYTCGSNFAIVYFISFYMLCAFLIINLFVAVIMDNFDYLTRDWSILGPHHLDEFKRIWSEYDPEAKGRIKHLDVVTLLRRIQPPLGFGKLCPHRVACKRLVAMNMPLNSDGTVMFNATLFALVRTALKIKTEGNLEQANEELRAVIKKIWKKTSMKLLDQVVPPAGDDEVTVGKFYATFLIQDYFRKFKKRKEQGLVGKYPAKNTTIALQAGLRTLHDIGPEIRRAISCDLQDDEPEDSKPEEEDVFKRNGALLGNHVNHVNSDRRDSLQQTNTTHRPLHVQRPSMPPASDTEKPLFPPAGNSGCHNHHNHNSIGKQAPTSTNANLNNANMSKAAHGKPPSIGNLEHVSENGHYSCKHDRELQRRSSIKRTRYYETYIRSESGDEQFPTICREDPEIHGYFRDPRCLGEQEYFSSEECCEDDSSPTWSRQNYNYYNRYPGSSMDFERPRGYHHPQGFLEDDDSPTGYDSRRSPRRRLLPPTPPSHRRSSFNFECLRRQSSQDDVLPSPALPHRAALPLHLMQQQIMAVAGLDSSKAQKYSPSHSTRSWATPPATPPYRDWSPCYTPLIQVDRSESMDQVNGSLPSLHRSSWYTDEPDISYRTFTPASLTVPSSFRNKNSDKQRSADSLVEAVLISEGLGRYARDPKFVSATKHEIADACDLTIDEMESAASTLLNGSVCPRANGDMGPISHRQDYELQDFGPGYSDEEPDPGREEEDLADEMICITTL
UniProt Q9Z0V1: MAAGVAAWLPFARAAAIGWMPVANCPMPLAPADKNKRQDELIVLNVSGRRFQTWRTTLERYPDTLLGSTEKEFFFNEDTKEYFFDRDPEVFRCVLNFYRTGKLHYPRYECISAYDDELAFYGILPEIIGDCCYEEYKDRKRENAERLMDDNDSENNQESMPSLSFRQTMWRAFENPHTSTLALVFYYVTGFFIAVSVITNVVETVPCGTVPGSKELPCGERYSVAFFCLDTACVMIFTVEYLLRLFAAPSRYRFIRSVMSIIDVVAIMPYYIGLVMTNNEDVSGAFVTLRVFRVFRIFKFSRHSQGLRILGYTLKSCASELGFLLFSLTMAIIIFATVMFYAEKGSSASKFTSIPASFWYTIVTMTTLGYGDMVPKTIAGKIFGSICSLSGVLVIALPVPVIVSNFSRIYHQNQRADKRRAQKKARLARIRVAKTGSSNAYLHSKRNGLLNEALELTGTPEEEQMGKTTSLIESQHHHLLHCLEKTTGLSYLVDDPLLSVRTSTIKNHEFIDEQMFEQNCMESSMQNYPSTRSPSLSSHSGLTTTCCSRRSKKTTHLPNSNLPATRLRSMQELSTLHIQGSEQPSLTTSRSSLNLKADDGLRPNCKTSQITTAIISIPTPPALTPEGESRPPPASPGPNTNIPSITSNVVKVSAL

[3] = biological target: Cav1.3 L-type voltage-dependent Ca2+ channel α1-subunit (mouse (endogenous in midbrain)) (UniProt Q99246); experiment: as above
[4] = biological target: Cav1.3 L-type voltage-dependent Ca2+ channel α1-subunit (mouse (endogenous in midbrain)) (UniProt Q99246); experiment: co-IP; mouse midbrain plasma-membrane-enriched fraction solubilised in ComplexioLyte CL47a (IP1) or CL48 (IP2), also in the other ComplexioLyte buffers of varying stringencies; antibody overnight at 4 °C, captured on protein A-Sepharose or protein A/G; immunoblot
[5] = biological target: SK3 calcium-activated small-conductance potassium channel (mouse (endogenous in midbrain)) (UniProt P58391); experiment: proximity ligation; in situ Duolink PLA with two primary antibodies on fixed 40 µm mouse midbrain slices; puncta counted on tyrosine-hydroxylase-labelled SNc DA neurons; controls: KO mice or an antibody to another protein
[6] = biological target: Kv4.3 A-type potassium channel (mouse (endogenous in midbrain)) (UniProt Q9Z0V1); experiment: co-IP; mouse midbrain plasma-membrane-enriched fraction solubilised in ComplexioLyte CL47a (IP1) or CL48 (IP2), also in the other ComplexioLyte buffers of varying stringencies; antibody overnight at 4 °C, captured on protein A-Sepharose or protein A/G; immunoblot
[7] = biological target: T2, hyperpolarization-activated cyclic nucleotide-gated channel HCN4 (mouse (endogenous in midbrain)) (UniProt O70507); experiment: proximity ligation; in situ Duolink PLA with two primary antibodies on fixed 40 µm mouse midbrain slices; puncta counted on tyrosine-hydroxylase-labelled SNc DA neurons; controls: KO mice or an antibody to another protein
T2 sequence: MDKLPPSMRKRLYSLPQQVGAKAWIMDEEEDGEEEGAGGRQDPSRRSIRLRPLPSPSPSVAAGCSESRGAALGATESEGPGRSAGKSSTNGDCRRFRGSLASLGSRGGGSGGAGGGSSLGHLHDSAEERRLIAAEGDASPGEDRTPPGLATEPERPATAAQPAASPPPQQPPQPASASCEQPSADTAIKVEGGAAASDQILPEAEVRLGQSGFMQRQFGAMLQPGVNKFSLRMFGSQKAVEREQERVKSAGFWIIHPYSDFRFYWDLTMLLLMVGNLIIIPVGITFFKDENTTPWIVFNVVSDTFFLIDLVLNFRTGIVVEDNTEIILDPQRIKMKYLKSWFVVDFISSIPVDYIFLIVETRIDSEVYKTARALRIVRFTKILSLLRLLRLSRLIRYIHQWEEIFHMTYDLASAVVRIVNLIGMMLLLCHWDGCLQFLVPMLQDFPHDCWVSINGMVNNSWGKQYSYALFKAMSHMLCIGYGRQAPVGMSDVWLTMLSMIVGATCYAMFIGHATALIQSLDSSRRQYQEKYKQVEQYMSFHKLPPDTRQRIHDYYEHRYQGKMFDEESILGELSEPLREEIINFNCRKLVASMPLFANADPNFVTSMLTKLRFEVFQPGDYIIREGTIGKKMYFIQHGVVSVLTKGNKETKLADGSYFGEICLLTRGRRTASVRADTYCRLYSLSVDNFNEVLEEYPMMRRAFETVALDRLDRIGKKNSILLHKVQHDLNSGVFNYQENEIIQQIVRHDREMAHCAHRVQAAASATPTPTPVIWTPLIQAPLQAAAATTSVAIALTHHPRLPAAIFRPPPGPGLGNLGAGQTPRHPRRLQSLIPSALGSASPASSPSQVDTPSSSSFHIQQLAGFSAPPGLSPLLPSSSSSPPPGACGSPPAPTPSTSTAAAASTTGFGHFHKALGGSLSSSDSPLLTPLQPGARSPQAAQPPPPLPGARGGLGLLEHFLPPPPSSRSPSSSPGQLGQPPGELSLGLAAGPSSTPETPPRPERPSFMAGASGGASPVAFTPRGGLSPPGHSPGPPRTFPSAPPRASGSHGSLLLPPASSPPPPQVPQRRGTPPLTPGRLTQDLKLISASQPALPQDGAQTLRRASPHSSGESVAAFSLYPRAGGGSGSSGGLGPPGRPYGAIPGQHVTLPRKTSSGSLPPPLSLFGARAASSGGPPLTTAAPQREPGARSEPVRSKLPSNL

- binding [1]: binds
Molecule: Cav1.3 L-type voltage-dependent Ca2+ channel α1-subunit (from UniProt Q99246 1-2179)

- binding [5]: binds
B1: sclerosis tuberous complex protein Tsc1 (protein, UniProt Q9EP53 1-1161)
chain: MAQLANIGELLSMLDSSTLGVRDDVTAIFKESLNSERGPMLVNTLVDYYLETNSQPVLHILTTLQEPHDKHLLDKINEYVGKAATRLSILSLLGHVVRLQPSWKHKLSQAPLLPSLLKCLKMDTDVVVLTTGVLVLITMLPMIPQSGKQHLLDFFDIFGRLSSWCLKKPGHVTEVYLVHLHASVYALFHRLYGMYPCNFVSFLRSHYSMKENVETFEEVVKPMMEHVRIHPELVTGSKDHELDPRRWKTLETHDVVIECAKISLDPTEASYEDGYSVSHQLSACFPYRSADVTTSPYVDTQNSYGGSTSTPSSSSRLMLFSPPGQLPQSLSSPSTRLLPEPLQASLWSPSAVCGMTTPPTSPGNVPADLSHPYSKAFGTTAGGKGTPSGTPATSPPPAPPCPQDDCVHGSAAQASATAPRKEERADSSRPYLHRQSNDRGLEDPPGSKGSVTLRNLPDFLGDLASEEDSIEKDKEEAAISKELSEITTAEADPVVPRGGFDSPFYRDSLSGSQRKTHSAASGTQGSSVNPEPLHSSLDKHGPDTPKQAFTPIDPPSGSADVSPAGDRDRQTSLETSILTPSPCKIPPQRGVSFGSGQLPPYDHLFEVALPKTACHFVSKKTEELLKKVKGNPEEDCVPSTSPMEVLDRLIEQGAGAHSKELSRLSLPSKSVDWTHFGGSPPSDELRTLRDQLLLLHNQLLYERFKRQQHALRNRRLLRKVIRAAALEEHNAAMKDQLKLQEKDIQMWKVSLQKEQARYSQLQEQRDTMVTQLHSQIRQLQHDREEFYNQSQELQTKLEDCRNMIAELRVELKKANNKVCHTELLLSQVSQKLSNSESVQQQMEFLNRQLLVLGEVNELYLEQLQSKHPDTTKEVEMMKTAYRKELEKNRSHLLQQNQRLDASQRRVLELESLLAKKDHLLLEQKKYLEDVKSQASGQLLAAESRYEAQRKITRVLELEILDLYGRLEKDGRLRKLEEDRAEAAEAAEERLDCCSDGCTDSLVGHNEEASGHNGETRTSRPGGTRASCGGRVTGGSSSSSSELSTPEKPPSQRFSSRWEPALGEPSSSIPTTVGSLPSSKSFLGMKARELFRNKSESQCDEDSVTMSSSSLSETLKTELGKDSGTENKTSLSLDAPHPSSPNSDNVGQLHIMDYNETHPEHS

- binding [1]: binds
- binding [6]: no binding
- binding [4]: binds
B2: hyperpolarization-activated cyclic nucleotide-gated channel HCN4 (protein, UniProt O70507 1-1201)
chain: T2 sequence

The next lines start with the molecule.

Molecule: SK2 channel subunit (from UniProt P58390 1-574)
- binding [2]: no binding

Molecule: SK3 calcium-activated small-conductance potassium channel (from UniProt P58391 1-732)
- binding [3]: binds
- binding [4]: binds

B3: sterile alpha and Toll/interleukin-1 receptor (TIR) motif-containing 1 (protein, UniProt Q6PDS3 28-724)
chain: LTVPGPDRSGGASPWWAAGGRGSREVSPGVGTEVQGALERSLPELQQALSELKQASAARAVGAGLAEVFQLVEEAWLLPAVGREVAQGLCDAIRLDGGLDLLLRLLQAPELETRVQAARLLEQILVAENRDRVARIGLGVILNLAKEREPVELARSVAGILEHMFKHSEETCQRLVAAGGLDAVLYWCRRTDPALLRHCALALANCALHGGQTVQRCMVEKRAAEWLFPLAFSKEDELLRLHACLAVAVLATNKEVEREVEHSGTLALVEPLVASLDPGRFARCLVDASDTSQGRGPDDLQSLVLLLDSSRLEAQCIGAFYLCAEAAIKSLQGKTKVFSDIGAIQSLKRLVSYSTNGTTSALAKRALRLLGEEVPRRILPCVASWKEAEVQTWLQQIGFSQYCENFREQQVDGDLLLRLTDEELQTDLGMKSSITRKRFFRELTELKTFASYATCDRSNLADWLGSLDPRFRQYTYGLVSCGLDRSLLHRVSEQQLLEDCGIRLGVHRTRILSAAREMLHSPLPCTGGKLSGDTPDVFISYRRNSGSQLASLLKVHLQLHGFSVFIDVEKLEAGKFEDKLIQSVIAARNFVLVLSAGALDKCMQDHDCKDWVHKEIVTALSCGKNIVPIIDGFEWPEPQALPEDMQAVLTFNGIKWSHEYQEATIEKIIRFLQGRPSQDSSAGSDTSLEGATPMGLP
- binding [7]: binds

Source: publication PMC11172389
